The source of these data is ChEMBL document CHEMBL4888484, “Replenishing the malaria drug discovery pipeline: Screening and hit evaluation of the MMV Hit Generation Library 1 (HGL1) against asexual blood stage Plasmodium falciparum ,using a nano luciferase reporter read-out” (2022).

In all, about 150,000 compounds went through this assay and about 540 (0.36%) showed an effect of 50% or more. The list shows a part of the results.

The test relates to Plasmodium falciparum. The test is described as follows: Primary screen in NF54 nanoGlo assay, in single point, at 2uM, 72h; a lower Z score goes with more inhibition. To be noted: timepoint 72 hour. Format: functional, Erythrocyte.
With `CCOc1ccccc1CN(CCN1CCCOCC1)C[C@H](C)O`, the % Inhibition (commonly the change of the read-out against control, counted positive when it falls) is on record as -7% and the Z score is 1.24.

Take `Cc1ccc(CN(CCO)c2ccc(C#N)cn2)o1`: the “% Inhibition” value was -6% and the Z score stood at 1.18.

Consider `Cc1ccccc1Cn1c(=O)c(C(=O)NCCN2CCOCC2)nn(-c2ccc(C(C)C)cc2)c1=O`, for which the “% Inhibition” value is -1% and the Z score is 0.11.

As to `Cc1cc(C(=O)Nc2cccc3c2CCCC3)on1`, the “% Inhibition” value is -19% and the Z score came to 3.49.

Turning to `CC[C@H](C)n1nccc1NC(=O)c1ccc(N2CCOCC2)c(F)c1`, the “% Inhibition” value is -4% and the Z score came to 0.49.

Turning to `COc1ccc(NC(=O)N2C[C@@H]3CCCN3c3ccccc32)c(OC)c1`, the “% Inhibition” value is -2% and the Z score is 0.23.

Take `O=C(N[C@H]1C[C@@H](c2cc(=O)[nH]cn2)C1)c1ncc(F)cc1F`: the “% Inhibition” value was -4% and the Z score is 0.73.

As to `O=C(Cc1cnc2ccccc2c1)N1CCC[C@H]1CO`, the “% Inhibition” value is listed as -12% and the Z score was 1.75.

On to `CCn1cc(-c2cc(C(F)(F)F)nc(N3CCC[C@H](C)C3)n2)cn1`, for which the “% Inhibition” value is recorded as 34% and the Z score was -3.9.

In the case of `CC1=C(CN2CC(=O)N[C@@H](C)C2)C(C)(C)CCC1`, the “% Inhibition” value is on record as -14% and the Z score amounted to 1.86.

On to `Cc1oncc1C(=O)N1CCN(C(=O)c2cnn3ccccc23)CC1`, for which the “% Inhibition” value was 14% and the Z score is given as -1.72.

As for `Cc1nc(-c2ccnc(-n3cnnc3)c2)n(C2CCCCC2)n1`, the “% Inhibition” value is -13% and the Z score is 1.69.

In the case of `OC1CCCCC1CNc1nc(C(F)(F)F)ns1` (stereo unspecified), the “% Inhibition” value is given as -7% and the Z score is given as 0.92.

Consider `CN(CCC(C)(C)O)C(=O)c1sccc1Cl`, for which the “% Inhibition” value turned out to be 5% and the Z score is recorded as -0.92.

As to `NC(=O)c1cc2c(cc1N1CCCC1)NC(=O)C[C@@H]2c1ccccn1`, the “% Inhibition” value was 1% and the Z score is given as -0.1.

As to `Cc1ccc(-n2nnc(-c3nc(C)c(C(=O)NCc4ccccc4)s3)c2C)cc1C`, the “% Inhibition” value is on record as 7% and the Z score was -0.67.

On to `COc1cc(C)c(CN2CCN(C(=O)CO)CC2)c(C)n1`, for which the “% Inhibition” value was -4% and the Z score came out at 0.63.

Turning to `CC(=O)N1CCN(C(=O)CC2CC3CCC2C3)CC1` (stereo unspecified), the “% Inhibition” value is listed as 38% and the Z score is -4.34.

In the case of `FC(F)(F)c1ccnc(Oc2ccc3ncccc3c2)n1`, the “% Inhibition” value is reported as -14% and the Z score stood at 1.84.

For `CO[C@@H](CNC(=O)N1CCC(c2nc3ccccc3o2)CC1)c1ccc(F)cc1`, the “% Inhibition” value is recorded as -2% and the Z score is 0.24.

For the compound `Nc1cc(-c2cccc3ccnn23)nc(N2CCCC2)n1`, the “% Inhibition” value is listed as -11% and the Z score turned out to be 1.39.

Regarding `CCNC(=NCc1cccc(OC(F)F)c1)NCC`, the “% Inhibition” value is reported as -5% and the Z score is on record as 0.93.

Consider `c1ccc([C@@H]2Cn3nc(-c4nc(-c5ccc6c(c5)OCO6)no4)cc3CO2)cc1`, for which the “% Inhibition” value is 1% and the Z score is given as -0.09.

`O=c1c2nnsc2ncn1Cc1ccccc1Cl`: the “% Inhibition” value worked out at 5% and the Z score is given as -0.86.

With `NC(=O)C1CCCCCC1NC(=O)c1n[nH]c(=O)c2ccccc12` (stereo unspecified), the “% Inhibition” value worked out at 3% and the Z score is on record as -0.43.

On to `Cc1ncsc1CCS(N)(=O)=O`, for which the “% Inhibition” value is given as -3% and the Z score stood at 0.44.

In the case of `CCc1nc(C#N)cc(N[C@@H]2C(=O)NCC2(C)C)n1`, the “% Inhibition” value was -1% and the Z score is 0.1.

Regarding `COCCCN/C(=N\c1ccc(C(=O)O)cc1)N1CCN([C@@H](C)CC(C)C)CC1`, the “% Inhibition” value is reported as -6% and the Z score was found to be 0.59.

As to `CC(=O)c1c[nH]c(C(=O)Nc2ccc(NC(=O)NCc3ccco3)cc2)c1`, the “% Inhibition” value is on record as 3% and the Z score is reported as -0.36.

On to `Cc1c(NC(=O)c2cc3n(n2)[C@H](C(F)(F)F)C[C@H](c2ccco2)N3)c(=O)n(-c2ccccc2)n1C`, for which the “% Inhibition” value is given as -10% and the Z score was found to be 1.28.

With `Cc1ccccc1[C@H]1C[C@@H](O)[C@@H](O)[C@@H]1NS(=O)(=O)c1ccc(Cl)cc1`, the “% Inhibition” value was -8% and the Z score stood at 1.23.

For the compound `O=C(NCCS(=O)(=O)N1CCN(c2cccc(Cl)c2)CC1)C1CCCC1`, the “% Inhibition” value is 18% and the Z score is -2.24.

Consider `C[C@H](Oc1ccc(F)c(F)c1)c1nc(C2CCCC2)no1`, for which the “% Inhibition” value is -4% and the Z score turned out to be 0.53.

With `COc1cccc(F)c1NC(=O)NCCCc1nc[nH]n1`, the “% Inhibition” value is on record as -2% and the Z score came out at 0.33.

For the compound `Cn1nccc1-c1cncc(CNC(=O)Nc2ccccc2C(F)(F)F)c1`, the “% Inhibition” value was determined as 25% and the Z score is -3.31.

Consider `CCN1CC2(CCN(C(=O)c3cc[nH]c3C)CC2)CC1=O`, for which the “% Inhibition” value came out at 1% and the Z score is -0.12.

As to `Cc1[nH]c2ccccc2c1C(=O)COc1nnc(-c2ccccc2)c(-c2ccccc2)n1`, the “% Inhibition” value is given as -4% and the Z score is listed as 0.79.

As to `Cc1cc(C)cc(OCc2nnc(C(=O)Nc3cccc(C(=O)NC(C)C)c3)s2)c1`, the “% Inhibition” value is recorded as -14% and the Z score came out at 1.43.

With `COc1ccc(C[C@](C)(O)CNS(=O)(=O)c2cccs2)cc1`, the “% Inhibition” value was -8% and the Z score amounted to 1.37.

Regarding `CCN(CC)c1cc(CCC(=O)NCC2CC2)ccn1`, the “% Inhibition” value is 5% and the Z score is -0.9.

On to `CC(C)(CC(=O)Nc1ccc2oc(C3CC3)nc2c1)C(=O)O`, for which the “% Inhibition” value worked out at 37% and the Z score is given as -4.72.

Regarding `O=C(C[n+]1ccc(/C=C/c2ccccc2)cc1)c1ccc2c(c1)OCCO2`, the “% Inhibition” value was -7% and the Z score is recorded as 1.18.

Take `CCN1CCc2nc(-c3ccco3)nc(N(C)Cc3ncc[nH]3)c2CC1`: the “% Inhibition” value came out at 6% and the Z score is reported as -0.97.
